In the supplement of paper PMC12217912:
This is one part of the list. Sequences were assembled here from the parent chain. Values near 0.05 are background.

B1: TEV protease; numbered along this chain (parent)
chain: MGESLFKGPRDYNPISSSICHLTNESDGHTTSLYGIGFGPFIITNKHLFRRNNGTLVVQSLHGVFKVKDTTTLQQHLVDGRDMIIIRMPKDFPPFPQKLKFREPQREERICLVTTNFQTKSMSSMVSDTSCTFPSGDGIFWKHWIQTKDGQCGSPLVSTRDGFIVGIHSASNFTNTNNYFTSVPKNFMELLTNQEAQQWVSGWRLNADSVLWGGHKVFMVKPEEPFQPVKEATQL

Variants of: B1
Assay: raw area under fraction-flipped curve 0-4 h after induction (AUC4h, not background-subtracted), DNA-recorder readout of cleavage of the substrate (dimensionless); higher = more cleavage of the substrate by the protease variant
Details: temperature: 34 °C; time window: 0-4 h after rhamnose induction
Description: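 In vivo DNA recorder in E. coli TOP10(DE3) ΔrhaA at 34 °C. Each TEVp single-site mutant (parent TEVp 0) is paired with a single-site variant of the 7-mer TEVs (canonical ENLYFQ|S). The substrate sits between flexible linkers in a Bxb1-sfGFP-TEVs-SsrA fusion, so cleavage stabilises Bxb1 and speeds flipping of a recombination array, read by NGS. The value is the raw area under the fraction-flipped curve over 0-4 h after rhamnose induction (AUC4h), with ≥20 reads per time point. It is not background-subtracted; inactive controls average about 0.047.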
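Further: Bxb1 expression induced with 0.2% (w/v) L-rhamnose at OD600 near 0.5, cultures sampled hourly, flipped fraction per protease–substrate barcode pair counted by paired-end Illumina sequencing.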

| Variant | area with substrate ENAYFQS | area with substrate ENCYFQS | area with substrate ENDYFQS | area with substrate ENEYFQS | area with substrate ENHYFQS | area with substrate ENIYFQS | area with substrate ENKYFQS | area with substrate ENMYFQS | area with substrate ENNYFQS | area with substrate ENPYFQS | area with substrate ENQYFQS | area with substrate ENRYFQS | area with substrate ENSYFQS | area with substrate ENVYFQS | area with substrate ENYYFQS | area with substrate ENFYFQS | area with substrate ENGYFQS | area with substrate ENTYFQS | area with substrate ENWYFQS |
| --- | --- | --- | --- | --- | --- | --- | --- | --- | --- | --- | --- | --- | --- | --- | --- | --- | --- | --- | --- |
| T132A | 0.0523 | 0.0698 | 0.0582 | 0.068 | 0.0561 | 0.103 | 0.0234 | 0.0758 | 0.0581 | 0.0524 | 0.0607 | 0.0615 | 0.061 | 0.0678 | 0.0566 | – | – | – | – |
| T132I | 0.0546 | – | 0.0627 | 0.067 | – | 0.0351 | 0.0515 | – | 0.0611 | 0.0633 | 0.051 | 0.0607 | 0.063 | – | – | 0.0596 | 0.0592 | – | – |
| F133K | 0.0587 | 0.0779 | 0.0776 | 0.052 | – | 0.176 | – | – | – | – | 0.0711 | 0.0614 | 0.0608 | 0.0667 | 0.0693 | 0.0657 | 0.0646 | 0.0614 | – |
| F133W | 0.0688 | 0.0588 | 0.0481 | 0.066 | 0.0636 | 0.106 | – | 0.0796 | 0.059 | – | 0.0578 | 0.0571 | 0.0675 | 0.0689 | – | – | 0.0609 | 0.0625 | 0.0489 |
| P134D | 0.0681 | 0.0575 | 0.065 | 0.0661 | – | 0.0726 | 0.0696 | 0.0552 | 0.0721 | 0.0593 | 0.0622 | 0.0658 | 0.0639 | 0.0593 | 0.052 | 0.0534 | 0.0584 | – | 0.0593 |
| S135R | 0.0669 | 0.0593 | 0.0563 | 0.0579 | 0.0436 | 0.0663 | – | 0.0552 | 0.0572 | 0.0682 | 0.0542 | 0.063 | 0.0575 | 0.0658 | 0.0681 | 0.0615 | 0.0728 | 0.0602 | – |
| F140G | 0.0573 | 0.0695 | 0.046 | 0.0664 | 0.0574 | 0.0631 | 0.0768 | 0.0453 | – | – | 0.0627 | 0.0518 | 0.0486 | 0.0629 | – | – | 0.0671 | 0.0593 | – |
| W141A | 0.0576 | 0.0508 | – | 0.0533 | 0.0548 | – | – | – | 0.0558 | 0.0667 | 0.0506 | 0.0612 | 0.0615 | – | 0.0628 | 0.0555 | 0.052 | 0.0569 | – |
| W141I | 0.0542 | 0.0567 | – | 0.0631 | 0.0588 | – | 0.048 | – | – | – | 0.0834 | – | – | – | – | 0.0538 | 0.0561 | 0.058 | – |
| W141P | 0.0607 | 0.0646 | – | 0.0552 | 0.0629 | 0.0483 | 0.0558 | – | 0.0397 | 0.0517 | 0.0612 | 0.0576 | 0.0553 | 0.086 | – | 0.0637 | 0.0568 | 0.0444 | – |
| K142I | 0.0677 | 0.0658 | 0.0685 | 0.0604 | 0.0633 | 0.0923 | 0.054 | 0.0835 | 0.067 | – | 0.0594 | 0.0662 | 0.0795 | 0.0796 | 0.0594 | – | 0.0678 | – | 0.0645 |
| K142L | 0.0622 | 0.0793 | 0.0656 | 0.0618 | 0.0612 | 0.151 | 0.0613 | 0.0898 | 0.0605 | 0.0603 | 0.0556 | 0.0558 | 0.0481 | 0.0872 | – | 0.0682 | 0.0685 | 0.0926 | – |
